Results as given in the supplement of paper PMC10126150.
Sequences with one replicate were seen in a single cluster, so their values are uncertain.

test system: ATP; assay: switch fluorescence ratio, 500 uM ATP over buffer (Cy3 cluster intensity, sum of 5 cycles each) (fold (ratio)); higher = stronger signal-on switching upon ATP binding; sequences stand for … in TCGTCGGCAGCGTCAGATGTGTATAAGAGACAGTTTTTTTTTTTTTTTTTTTTTTTTT…TC; settings: aptamer strand: ATP DNA aptamer (quencher-CACCTGGGGGAGTATTGCGGAGGAAGG + anchor), 100 nM annealed; ATP concentration: 500 uM; one replicate
Outline: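 Five buffer/ATP imaging cycles were run on Cy3-labelled switching-strand clusters on a modified Illumina MiSeq flow-cell, with NaOH stripping and re-annealing between cycles. In each cycle, clusters annealed to 100 nM quencher-labelled ATP aptamer were imaged in selection buffer, then after 15 min with 500 uM ATP at 22 °C. Per cluster, the fluorescence ratio is summed target-cycle over summed buffer-cycle Cy3 intensity, averaged per switch-domain sequence. Only clusters within 100-1000 RFU were kept.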
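Also: ATP exposure 15 min at 22 °C before imaging.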

Row | Sequence | switch fluorescence ratio
1 | AGTCCTTCAT | 1.14
2 | AGTCGAAGGT | 0.973
3 | AGTCGCGATG | 0.996
4 | AGTCGGAAGT | 0.964
5 | AGTCGGACGT | 0.971
6 | AGTCGGCCGA | 1.04
7 | AGTCGGTTGA | 1.04
8 | AGTCGTATGC | 0.943
9 | AGTCGTCCCT | 1.01
10 | AGTCGTTGTG | 1
11 | AGTCTCATTT | 1.05
12 | AGTCTCCTCT | 0.969
13 | AGTCTCCTGG | 0.969
14 | AGTCTGAATA | 0.959
15 | AGTCTGAGGG | 0.973
16 | AGTCTGCAAA | 1.72
17 | AGTCTGCCAC | 1.03
18 | AGTCTGGGCG | 0.993
19 | AGTCTGGTAC | 1.05
20 | AGTCTGTCAT | 0.975
21 | AGTCTTATCC | 0.996
22 | AGTCTTTAGA | 0.95
23 | AGTCTTTGAG | 0.99
24 | AGTGAAAGCT | 1.04
25 | AGTGAACACT | 1.01
26 | AGTGAACCTC | 1.01

Row | Sequence | switch fluorescence ratio
27 | AGTGAAGCGA | 1.02
28 | AGTGACCATG | 0.983
29 | AGTGACGCA | 1.24
30 | AGTGAGAGCA | 0.996
31 | AGTGATAGCA | 1.03
32 | AGTGATCAGC | 1.05
33 | AGTGATGGAA | 1.03
34 | AGTGATTCG | 0.991
35 | AGTGATTTAA | 1.02
36 | AGTGCAAACT | 0.993
37 | AGTGCACGAC | 1.02
38 | AGTGCCAAC | 1.02
39 | AGTGCGAAAC | 1.08
40 | AGTGCGCCAG | 0.994
41 | AGTGCGTACA | 1.02
42 | AGTGCTGGAT | 1.04
43 | AGTGGACAT | 0.983
44 | AGTGGATGTC | 1.05
45 | AGTGGCGCGC | 0.98
46 | AGTGGCGGTT | 0.962
47 | AGTGGGGAAC | 1.01
48 | AGTGGTTTTC | 0.952
49 | AGTGTACAAA | 1.09
50 | AGTGTACCTG | 1.05
51 | AGTGTACTTA | 1.04
52 | AGTGTGACGT | 1.04

Row | Sequence | switch fluorescence ratio
53 | AGTGTGCGAT | 0.981
54 | AGTGTGCTTC | 0.967
55 | AGTGTGTCAA | 1.04
56 | AGTGTTTAGG | 1.04
57 | AGTGTTTCGC | 1.03
58 | AGTGTTTGAG | 0.977
59 | AGTGTTTGCG | 0.985
60 | AGTGTTTGGA | 1.06
61 | AGTTAAAAAG | 0.967
62 | AGTTAAGAG | 1.01
63 | AGTTAAGTAC | 1.47
64 | AGTTACCCCG | 1.04
65 | AGTTAGTGCC | 0.986
66 | AGTTATCCA | 0.993
67 | AGTTCAAAAC | 0.972
68 | AGTTCAGTTG | 1.04
69 | AGTTCATACT | 1.04
70 | AGTTCCCGGG | 1.01
71 | AGTTCCTGT | 0.985
72 | AGTTCCTTCT | 1.06
73 | AGTTCGCGT | 0.959
74 | AGTTCGCTT | 1.02
75 | AGTTCGGGTG | 1.04
76 | AGTTCTAAAT | 1.02
77 | AGTTCTGCGT | 1.09
78 | AGTTCTTCAT | 0.996

Row | Sequence | switch fluorescence ratio
79 | AGTTGACCTG | 0.937
80 | AGTTGACTGG | 0.998
81 | AGTTGATGGC | 0.969
82 | AGTTGCATCA | 0.979
83 | AGTTGCATCT | 1.01
84 | AGTTGCGAAA | 1.01
85 | AGTTGCTTTA | 0.953
86 | AGTTGGGTAA | 1.01
87 | AGTTTACGA | 0.994
88 | AGTTTATCCG | 0.995
89 | AGTTTCCACA | 1.04
90 | AGTTTTACGT | 1.03
91 | AGTTTTAGGC | 0.991
92 | AGTTTTCTGC | 1.14
93 | AGTTTTGTGG | 1.04
94 | AGTTTTT | 0.977
95 | ATAAAAATAC | 0.977
96 | ATAAAACGTA | 1.16
97 | ATAAAAGAGA | 0.983
98 | ATAAAATTCT | 0.993
99 | ATAAACATTT | 1.01
100 | ATAAACGCTG | 1.04
101 | ATAAACTATG | 0.987
102 | ATAAAGATGT | 1.02
103 | ATAAAGGCAT | 0.983
104 | ATAAATGTTG | 1

Row | Sequence | switch fluorescence ratio
105 | ATAACAGCGG | 0.954
106 | ATAACGCAAC | 1.28
107 | ATAACTATAT | 1.06
108 | ATAACTGTGG | 1.01
109 | ATAAGAAGCT | 1.03
110 | ATAAGACCCT | 1.05
111 | ATAAGACGTC | 0.948
112 | ATAAGAGATG | 0.989
113 | ATAAGAGATT | 1.07
114 | ATAAGAGGGG | 1
115 | ATAAGAGTGT | 1.01
116 | ATAAGCCAGA | 1
117 | ATAAGCGATA | 1.19
118 | ATAAGGACCT | 1.15
119 | ATAAGGCCAT | 0.994
120 | ATAAGGCTA | 0.981
121 | ATAAGGTAAG | 1.01
122 | ATAAGTAATA | 1.03
123 | ATAAGTAGGT | 1.06
124 | ATAATAAGGA | 1.02
125 | ATAATACCTG | 1.02
126 | ATAATAGTGA | 0.968
127 | ATAATATTAG | 0.981
128 | ATAATCCTTC | 1.19
129 | ATAATGCCG | 0.962
130 | ATAATGCCGT | 0.981

Row | Sequence | switch fluorescence ratio
131 | ATAATTACGG | 1.04
132 | ATAATTATGG | 1
133 | ATAATTCTTT | 1.03
134 | ATAATTGAAT | 1.01
135 | ATACAAAGAC | 1.03
136 | ATACAAGGGT | 0.989
137 | ATACAATATC | 1.06
138 | ATACAATTCA | 0.989
139 | ATACACCAGA | 1.07
140 | ATACACTGAG | 1.05
141 | ATACATAGTA | 1.1
142 | ATACCACTTG | 0.987
143 | ATACCATAT | 1.06
144 | ATACCCGTGA | 1.04
145 | ATACCGAATT | 1.01
146 | ATACCGGATC | 1.09
147 | ATACCGGGTG | 3.16
148 | ATACCGTCCC | 1.32
149 | ATACCTGAGA | 0.987
150 | ATACGCCTCA | 1.09
151 | ATACGGCGT | 0.995
152 | ATACGGCTGT | 0.987
153 | ATACGGGTGG | 1.09
154 | ATACGTTTAA | 1.11
155 | ATACTAAGGG | 1
156 | ATACTAATCT | 1.03

Row | Sequence | switch fluorescence ratio
157 | ATACTACGTA | 1.04
158 | ATACTAGTTT | 0.993
159 | ATACTGGGTC | 0.995
160 | ATACTTCTTT | 1.02
161 | ATACTTGAAA | 0.977
162 | ATACTTGGGC | 0.987
163 | ATACTTGTGG | 1.01
164 | ATAGAAATAT | 1.04
165 | ATAGAATTTG | 1
166 | ATAGAATTTT | 1
167 | ATAGACATGT | 0.997
168 | ATAGAGTGA | 1
169 | ATAGAGTGT | 0.991
170 | ATAGATCAGT | 1.02
171 | ATAGATCGCG | 0.992
172 | ATAGATTGTA | 0.995
173 | ATAGCATCGA | 1.02
174 | ATAGCATGAG | 1.03
175 | ATAGCCCGGA | 1.01
176 | ATAGCCGGCT | 0.978
177 | ATAGCGGGCC | 1.03
178 | ATAGCGTCAG | 1.03
179 | ATAGGAGGAC | 1
180 | ATAGGAGTC | 1
181 | ATAGGATAAA | 0.976
182 | ATAGGATAT | 0.968

Row | Sequence | switch fluorescence ratio
183 | ATAGGGACCG | 1.01
184 | ATAGGGTTGT | 1.03
185 | ATAGGTAGGA | 0.98
186 | ATAGGTAGTA | 0.988
187 | ATAGGTCGTC | 0.992
188 | ATAGGTGATT | 1.01
189 | ATAGGTGGAG | 0.966
190 | ATAGGTGTTC | 0.964
191 | ATAGGTTATG | 0.945
192 | ATAGGTTCAT | 0.982
193 | ATAGGTTTT | 1.13
194 | ATAGTAAAAA | 0.958
195 | ATAGTAACGA | 1.01
196 | ATAGTATTTC | 1
197 | ATAGTCGGGA | 0.982
198 | ATAGTGAAAG | 0.979
199 | ATAGTGATGG | 0.999
200 | ATAGTGGCCA | 1.02
201 | ATAGTTACGA | 0.993
